This note sets out measurements from paper PMC10668032.

This is one part of the list. At the low end of the ranking the order means little.

In the test the target is SIX1 homeodomain (reference allele) (UniProt Q15475). Description: universal protein binding microarray. As to conditions: Universal all-10-mer PBM (8x60K, AMADID 030236), 300 nM GST-tagged protein, Alexa Fluor 488 anti-GST; buffer, salt, pH and temperature not stated; high values mean tight binding; most listed sequences are background and not binding sites; double strand, one strand shown.
Consider ACCTCGAC, for which the binding signal is -0.203 E-score.
Regarding CTCGTAAA, the binding signal was -0.227 E-score.
Take CTTATTCA: the binding signal was -0.0942 E-score.
Consider AACTGTGC, for which the binding signal was -0.241 E-score.
Consider ACCATGAC, for which the binding signal was -0.0638 E-score.
The same measure for CGTTGTCA: -0.309 E-score; for CGATATTA: 0.365 E-score.
As to CTTGGGGA, the binding signal was determined as 0.163 E-score.
As for CAGCCCGG, the figure is -0.146 E-score; as for CACAGACC, -0.0529 E-score.
Regarding CCAAAGAG, the binding signal was -0.21 E-score.
In the case of AGCCTCCA, the binding signal is -0.251 E-score.
AATTGTCG: the binding signal was -0.147 E-score.
In the case of ATCACCAT, the binding signal turned out to be 0.242 E-score.
As to AATACCCT, the binding signal is 0.384 E-score.
With GGTCACAA, the binding signal was -0.0433 E-score.
With CCCAGAAC, the binding signal is -0.0814 E-score.
For TAGAATAA, the binding signal worked out at 0.0676 E-score.
Take TCGGGAGA: the binding signal amounted to 0.0368 E-score.
With AGCCATAG, the binding signal is -0.0443 E-score.
For the sequence ATGAGCGC, the binding signal was -0.139 E-score.
As for CAGAGCAA, the binding signal was -0.177 E-score.
The same measure for CCCCGTCA: -0.0181 E-score; for GTTGACAA: -0.297 E-score; for ACATGGTC: 0.0828 E-score.
With CCTGGGGC, the binding signal was -0.0201 E-score.
Take CTGATAAG: the binding signal was determined as 0.0735 E-score.
Take GCACGTGA: the binding signal was -0.0895 E-score.
Consider ATGGTGCC, for which the binding signal is -0.034 E-score.
TATCCAGA: the binding signal was found to be 0.334 E-score.
The same measure for GGACCCAC: -0.101 E-score; for CGAGATGC: 0.0578 E-score; for ATCTAAGA: 0.115 E-score.
As to CGGGTTCC, the binding signal is 0.141 E-score.
As to GGAGATTA, the binding signal turned out to be 0.197 E-score.
The same measure for CATGTCGG: -0.0307 E-score; for ATTCAGGA: 0.0546 E-score; for CTTGCGGC: -0.163 E-score.
ATACCGCA: the binding signal was 0.406 E-score.
With GCCTCTCA, the binding signal was -0.223 E-score.
On to CGTAGCAG, for which the binding signal was -0.0217 E-score.
As for CCTACCAA, the figure is -0.0401 E-score.
As to AGTGCCTG, the binding signal was -0.312 E-score.
The same measure for AGATTTCG: -0.202 E-score; for GGTGTGGA: 0.275 E-score; for CGGTCATC: 0.102 E-score.
Consider AAACTATT, for which the binding signal was -0.0843 E-score.
As for CGGGGGGC, the figure is -0.0362 E-score; as for CTTCAAGA, -0.239 E-score.
As to CATGCATG, the binding signal is 0.124 E-score.
Regarding GACTACCC, the binding signal was -0.0809 E-score.
On to GAGGTGCC, for which the binding signal was -0.216 E-score.
Turning to CCCATGCG, the binding signal is -0.0695 E-score.
In the case of AATATCGT, the binding signal was 0.309 E-score.
For the sequence CGAATAAA, the binding signal was -0.196 E-score.
For ACACTTTA, the binding signal came out at 0.0206 E-score.
For the sequence AGAATTCA, the binding signal is -0.181 E-score.
As for CTCGCCAA, the figure is -0.253 E-score.
Consider CTGACGGC, for which the binding signal was -0.0186 E-score.
Consider AACCTGTC, for which the binding signal was -0.118 E-score.
As for ACCGGACG, the figure is 0.0115 E-score; as for ACCGATAA, 0.0442 E-score.
As for CTGGGTCA, the figure is 0.0912 E-score; as for ACAGCGGA, 0.0507 E-score; as for CGAAAGCC, -0.244 E-score.
On to CGGGGTGC, for which the binding signal was 0.058 E-score.
Regarding CATTGCCA, the binding signal was -0.178 E-score.
Regarding ACAGCCCG, the binding signal is -0.17 E-score.
For TAACCAAA, the binding signal was -0.213 E-score.
Turning to CCACAGTA, the binding signal stood at 0.0344 E-score.
For CCACTCTA, the binding signal was -0.142 E-score.
With CACATTAA, the binding signal was -0.0436 E-score.
TATACTAA: the binding signal was 0.127 E-score.
In the case of ATAAATGA, the binding signal is 0.0885 E-score.
As for ATTCCCGG, the figure is 0.0727 E-score; as for CACGTGGG, -0.048 E-score.
GAAAATAC: the binding signal was determined as 0.0716 E-score.
Regarding GTAGTCCA, the binding signal is -0.147 E-score.
In the case of GCGGGATA, the binding signal amounted to 0.349 E-score.
Consider CGCGACGC, for which the binding signal was -0.157 E-score.
As for AGTGCCCG, the figure is -0.124 E-score; as for CTGACGAC, -0.185 E-score.
As for AGCCTTAG, the binding signal is -0.0156 E-score.
Regarding ACGAAGAT, the binding signal was -0.0283 E-score.
As for ATACAGGG, the binding signal came to 0.295 E-score.
For the sequence CCCCCGGG, the binding signal is -0.205 E-score.
For AATAGAAG, the binding signal is -0.149 E-score.
In the case of CTATCTGA, the binding signal is 0.231 E-score.
The same measure for CATCGGAA: 0.00832 E-score; for AGATGTCA: -0.0406 E-score.
Turning to CAAGGATC, the binding signal was 0.351 E-score.
The same measure for CGGTACCA: 0.0128 E-score; for GCATTAAA: -0.114 E-score; for CATGGCAC: -0.02 E-score.
As for GCATTGGC, the binding signal was -0.118 E-score.
With CGCTTTCC, the binding signal is -0.225 E-score.
For the sequence GACAAGGA, the binding signal amounted to 0.0343 E-score.
For the sequence CCTTTTGC, the binding signal was -0.0617 E-score.
On to AATGACCC, for which the binding signal came to 0.0525 E-score.
For AGAAGGAC, the binding signal is -0.109 E-score.
As for CGATGCGA, the binding signal was found to be 0.104 E-score.
As for ACCAGAGT, the figure is -0.0917 E-score; as for ACGCTGGG, -0.133 E-score.
ACCAATCC: the binding signal was found to be 0.0833 E-score.
Regarding CGCAACAA, the binding signal was -0.351 E-score.
The same measure for ACTGATAT: 0.442 E-score.
As to AGTCCTAA, the binding signal is -0.273 E-score.
GTCACTTA: the binding signal was 0.0691 E-score.
With AGACCGTC, the binding signal is -0.0103 E-score.
CAAAATAC: the binding signal was found to be 0.0728 E-score.
In the case of CTCAGCTA, the binding signal is -0.117 E-score.
As for CTGTGAGC, the figure is 0.0561 E-score; as for AGCATTGC, -0.119 E-score; as for ACTATCGC, 0.236 E-score.
The same measure for CTGGCCCA: -0.286 E-score.
On to ACTCATGC, for which the binding signal was determined as 0.00969 E-score.
TAGACTAA: the binding signal is -0.0876 E-score.
In the case of GCGATTTA, the binding signal is -0.0974 E-score.
As for ATCCGAAG, the figure is 0.186 E-score; as for AGAAAGGA, -0.0443 E-score.
GACTCACC: the binding signal is -0.132 E-score.
The same measure for GGTTCGCA: 0.0489 E-score; for ATCGCATC: 0.327 E-score.
For ATAATGCA, the binding signal was 0.118 E-score.
Turning to AATCTCAC, the binding signal stood at 0.0604 E-score.
The same measure for CGACACTA: 0.0163 E-score.
Take AATACGTC: the binding signal was 0.205 E-score.
With CCATAGCA, the binding signal was -0.0149 E-score.
As for TATTCCGA, the figure is 0.0657 E-score.
Take AGAGTAAC: the binding signal was -0.196 E-score.
CTCAGGCA: the binding signal was -0.0622 E-score.
Take ACTGTGCT: the binding signal is -0.179 E-score.
Regarding TAACCGGA, the binding signal is 0.0932 E-score.
Take ATTAAAAG: the binding signal was -0.0997 E-score.
The same measure for CTTAGGTC: 0.0219 E-score; for AACCTTAG: -0.00982 E-score.
As for CAATTCTC, the figure is -0.0737 E-score; as for CACTCTCA, 0.0181 E-score.
Consider ACTAGTAC, for which the binding signal came out at 0.0353 E-score.
In the case of TCTAAAGA, the binding signal is -0.0807 E-score.
Take ATGGCAGC: the binding signal was -0.117 E-score.
For GGTGTGCA, the binding signal is 0.129 E-score.
As for GCTTTCCA, the figure is -0.303 E-score; as for ACGATTCA, 0.0697 E-score.
With CACAGTCA, the binding signal is -0.116 E-score.
As to GAATAACC, the binding signal is -0.129 E-score.
As for CCTCGAAG, the binding signal is -0.095 E-score.
The same measure for CTGGGTGC: -0.00704 E-score; for CATGCAAA: -0.177 E-score; for AGGATAGC: 0.229 E-score.
The same measure for AACGATCT: 0.176 E-score; for AGGGGTGA: 0.0138 E-score; for TACCTTGA: 0.139 E-score.
In the case of CACTAGCC, the binding signal worked out at 0.127 E-score.
The same measure for AGGGCCCT: -0.185 E-score; for GCTTGTAA: -0.268 E-score; for ATATAAGA: 0.303 E-score.
On to ACACCGAA, for which the binding signal was 0.253 E-score.
Consider AATCAGCC, for which the binding signal was -0.0819 E-score.
As to ACTGGGTA, the binding signal was determined as 0.163 E-score.
GGATTTTA: the binding signal was found to be 0.0603 E-score.
ACGCGTGG: the binding signal worked out at 0.0293 E-score.
For CCACGATC, the binding signal turned out to be 0.195 E-score.
Regarding ACCCTGGA, the binding signal is -0.0147 E-score.
The same measure for CCTACGTC: -0.0266 E-score; for CTCGCAAG: -0.19 E-score; for CGCTCCTA: -0.0814 E-score.
With ACTCGAGA, the binding signal came out at 0.155 E-score.
Turning to AGGGGGTC, the binding signal is -0.0137 E-score.
Regarding AAAACGCT, the binding signal was -0.245 E-score.
Consider AGTACGGA, for which the binding signal was -0.0761 E-score.
Turning to ATCTCTGG, the binding signal was 0.219 E-score.
For the sequence CCTCCTGA, the binding signal was found to be 0.0769 E-score.
As to AACCAGGT, the binding signal was -0.0907 E-score.
Take TCAGAAAA: the binding signal is -0.142 E-score.
Consider AGGGGAGC, for which the binding signal was -0.0543 E-score.
Take AAGGTTGG: the binding signal is -0.18 E-score.
As for GGTATTAC, the binding signal came to 0.385 E-score.
With ATGCTGTG, the binding signal was -0.0262 E-score.
The same measure for AGACACCT: 0.287 E-score.
Consider AGGGGTAG, for which the binding signal came out at 0.214 E-score.
Consider CACCAACA, for which the binding signal was -0.0418 E-score.
On to TAAACTGA, for which the binding signal amounted to 0.158 E-score.
With ATGGAGGG, the binding signal came to 0.0583 E-score.
As for TATACGGA, the binding signal is 0.28 E-score.
Turning to TAACTTGA, the binding signal came to 0.105 E-score.
CCCGCCAC: the binding signal is 0.0338 E-score.
As to GAATCTAA, the binding signal was -0.15 E-score.
In the case of ATGGTCAG, the binding signal is 0.00983 E-score.
For the sequence TAAAAACA, the binding signal is -0.114 E-score.
Consider AGGAGGCC, for which the binding signal was -0.195 E-score.
Consider AGTACAAG, for which the binding signal is -0.0699 E-score.
As to CCCAGTAG, the binding signal was -0.0555 E-score.
In the case of ACGTGTTG, the binding signal was -0.0112 E-score.
Take CATTGTGG: the binding signal is -0.1 E-score.
Turning to ATTGGCGG, the binding signal was -0.0821 E-score.
On to AACTTCTA, for which the binding signal was -0.309 E-score.
Turning to CGCACCAG, the binding signal was -0.0664 E-score.
With ACCGCCGA, the binding signal is 0.0208 E-score.
For GTCCCACA, the binding signal is -0.00498 E-score.
As for AGCCCCCA, the binding signal is -0.186 E-score.
The same measure for CGCATTAA: -0.00684 E-score; for CATCTCTC: -0.00136 E-score; for CGATGACC: 0.0306 E-score.
ATATCAGA: the binding signal was found to be 0.408 E-score.
Consider CTCACAAA, for which the binding signal was 0.0269 E-score.
Regarding CCTGTAAA, the binding signal is -0.204 E-score.
For the sequence TCAGTGGA, the binding signal turned out to be 0.0576 E-score.
As for AGGTCGGA, the binding signal came out at 0.0758 E-score.
On to TAAGGCCA, for which the binding signal was -0.27 E-score.
For the sequence GGTACCAC, the binding signal is -0.107 E-score.
ACAACGAG: the binding signal is -0.198 E-score.
Take ATAAGTCG: the binding signal is -0.0429 E-score.
As for GGATTCTA, the binding signal amounted to 0.0841 E-score.
Take AGTGAAAG: the binding signal was -0.129 E-score.
Turning to CTAGCTAA, the binding signal was -0.0344 E-score.
GGGTGGTA: the binding signal came to 0.088 E-score.
Take AGATACAC: the binding signal worked out at 0.38 E-score.
Take GCAAGCCC: the binding signal was -0.266 E-score.
